Assay results from PubChem BioAssay AID686979 (National Center for Advancing Translational Sciences (NCATS), 2013).
About 50,000 (12%) of roughly 420,000 compounds were called active. This list was built around the results that the source calls inconclusive (neither active nor inactive); the mix of calls is not that of the screen. Calls follow the shape of the dose curve; as a rule, active = well fitted inhibition curve with a large enough effect; inconclusive = small, poorly fitted or top-dose-only effect; inactive = flat fitted curve, though single readings scatter. No potency is given beside an inconclusive call; the fits are too rough.

experiment: qHTS for Inhibitors of human tyrosyl-DNA phosphodiesterase 1 (TDP1): qHTS in cells in presence of CPT; details: chicken DT40 Tdp1-/-;hTDP1 cells + 20 nM CPT, ATP luminescence, 48 h; activity change, negative = growth inhibition: at 46.2 µM (top of the series) unless noted; also: nearly all actives have a fitted effect of over 55% in size
How it was run: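 Chicken DT40 Tdp1-/- cells stably complemented with human TDP1 were seeded at 400 cells/well in medium containing 20 nM camptothecin, exposed to pin-transferred compounds, and grown at 37 °C for at least 48 hr. Viability was read as ATP luminescence.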
% is scaled to controls: 0 for no effect and ±100 for the full control effect; potency is read from the fitted curve at half-maximal effect; tags tell the direction and shape of the fitted curve.

Row | Compound | activity change, negative = growth inhibition | Potency
1 | CC1(NC(=O)Cc2ccc(S(=O)(=O)N3CCOCC3)s2)CCS(=O)(=O)C1 (stereo unspecified) | inactive: -5.33% | –
2 | COC(=O)c1ccc(CC2(C)C(=O)Nc3ccc(-c4cccc(C(F)(F)F)c4)cc32)o1 (stereo unspecified) | – | inconclusive [inhibitor, single point]
3 | CC1CC(NNC(=O)c2ccccc2)=Nc2ccccc2N1C (stereo unspecified) | inactive: 0.212% | –
4 | O=S(=O)(NCCSc1nnnn1-c1ccccc1)c1ccc(F)cc1 | – | inconclusive [inhibitor, partial curve]
5 | Cc1ccc(-c2onc(C)c2C)cc1S(=O)(=O)NCc1ccco1 | – | active: 23.1 µM
6 | COc1cccc(OCCCCn2c(-c3ccc(Cl)cc3)nc3ccccc3c2=O)c1 | inactive: -13.4% | –
7 | COC(=O)c1ccccc1S(=O)(=O)N1CCC(C(=O)N2CCC2)CC1 | inactive: -2.13% | –
8 | CC[C@@H]1C(c2ccc(F)cc2)=NN(c2ccc(Br)cc2)[C@H]1C(=O)N1CCOC1=O | – | inconclusive [inhibitor, single point]
9 | Fc1ccccc1N1CCN(c2ncnc3[nH]ncc23)CC1 | – | active: 14.6 µM
10 | Cc1cc(O)c(NC(=S)NC(=O)c2ccc(-c3ccc(Cl)cc3)o2)cc1C | – | inconclusive [inhibitor, single point]
11 | Cc1ccc2c(C)c(C(=O)Nc3cccnc3)oc2c1C | – | inconclusive [inhibitor, single point]
12 | COc1ccc(NC(=O)C2C3C=CC4(O3)C2C(=O)N(CCN2CCCCC2)C4C(=O)NC2CCCC(C)C2C)cc1 (stereo unspecified) | inactive: -2.5% | –
13 | COc1ccc(C)cc1S(=O)(=O)NC1CCCCC1 | inactive: 0.565% | –
14 | Cc1c(Cc2ccccc2)sc(NC(=O)Cc2ccccc2)c1C(N)=O | – | inconclusive [inhibitor, single point]
15 | O=c1c(-c2cc(F)cc(F)c2)nc2cnc(N3CCNCC3)nc2n1-c1ccccc1 | – | inconclusive [inhibitor, single point]
16 | CC(C)CCNC(=O)C1(C)CCN1Cc1ccc2ccccc2c1 (stereo unspecified) | – | inconclusive [inhibitor, single point]
17 | CC(Nc1nc(=S)nc(Nc2ccc(F)cc2)[nH]1)c1ccccc1 (stereo unspecified) | – | active: 20.6 µM
18 | Cc1c(-c2ccccc2)n[nH]c1C(=O)N=Nc1c(O)[nH]c2ccccc12 | – | inconclusive [inhibitor, single point]
19 | O=C(c1cccc([N+](=O)[O-])c1)N1c2ncnn2C2(CCCCC2)[C@@H]2CCCC[C@@H]21 | – | inconclusive [inhibitor, single point]
20 | CSc1cccc(-n2cc(-c3ccc4c(c3)OCO4)[nH]c2=O)c1 | – | active: 4.61 µM
21 | COc1ccccc1-c1nc(NC2CC2)c2ccccc2n1 | – | inconclusive [inhibitor, single point]
22 | COc1ccc(C2=NN(CN3C(=O)C(=O)c4ccccc43)C(c3ccc(Br)cc3)C2)cc1 (stereo unspecified) | – | active: 16.4 µM
23 | Cc1ccccc1CSc1nnc(-c2cnccn2)n1C | inactive: -14.8% | –
24 | Cc1ccc2cccc(NC(=O)COc3ccccc3[N+](=O)[O-])c2n1 | inactive: -11.5% | –

Row | Compound | activity change, negative = growth inhibition | Potency
25 | CCCCc1ccc(-n2nc3cc(C)c(NC(=O)Cc4ccccc4)cc3n2)cc1 | inactive: -26.8% | –
26 | C=CC[C@@H](Cc1ccc(F)cc1)C(=O)OC[C@H]1CCCN1C(=O)[C@H](CC=C)CC(=O)N[C@H](CO)Cc1ccccc1 | – | active: 20.6 µM
27 | O=c1c(C=Nc2ccc(Oc3ccccc3)cc2)c[nH]n1-c1cccc(Cl)n1 | – | inconclusive [inhibitor, single point]
28 | COc1ccc(OCCSc2ncc(CO)n2C)cc1 | inactive: -23.7% | –
29 | CCC(C)c1ccccc1NC(=S)NC(=O)c1ccco1 (stereo unspecified) | – | active: 23.1 µM
30 | Cc1cc([N+](=O)[O-])nn1CC(=O)N/N=C/c1ccc(O)cc1O | – | active: 8.2 µM
31 | Clc1cccc(Cc2c(-c3cccc(Cl)c3)nc3ccc(Cl)cn23)c1 | – | inconclusive [inhibitor, single point]
32 | COc1ccc(CCNC(=O)c2cccc(S(=O)(=O)N3CCCC3)c2)cc1OC | – | inconclusive [inhibitor, partial curve]
33 | COC(=O)c1ccccc1NC(=O)Cn1cc(S(=O)(=O)Cc2ccccc2F)c2ccccc21 | – | active: 14.6 µM
34 | CN(CCc1ccccn1)Cc1ccc(Cl)cc1 | inactive: -4.47% | –
35 | COc1cc2c(-c3cc(F)cc(F)c3)c(-c3ccsc3)oc(=O)c2cc1OC | – | inconclusive [inhibitor, single point]
36 | Cc1cccc(OCc2ccc(-c3nc(C#N)c(NCCN(C)C)o3)o2)c1 | – | inconclusive [inhibitor, single point]
37 | Cc1ccc(S(=O)(=O)c2cnc(SCC(=O)Nc3cc(C)cc(C)c3)nc2N)cc1 | – | inconclusive [inhibitor, single point]
38 | COC(=O)C1N[C@@H]([C@@H](NC(=O)COc2ccccc2)C(=O)NC2CC2)SC1(C)C (stereo partly specified) | – | inactive
39 | CCCNC(=O)c1ccc2c(c1)C1C3CCC(C3)C1C(c1ccccc1)N2 (stereo unspecified) | – | active: 20.6 µM
40 | CCCN(CCC)C(=O)CSc1nnc2cc(C)c3cc(C)cc(C)c3n12 | – | inconclusive [inhibitor, single point]
41 | O=[N+]([O-])c1ncn(Cc2ccccc2Cl)n1 | inactive: 1.35% | –
42 | O=S(=O)(Nc1nc(SCc2ccc(Cl)cc2)n[nH]1)c1ccccc1 | – | inconclusive [inhibitor, single point]
43 | CCN(CC)c1ccc(NC(=O)c2ccccc2F)cc1S(=O)(=O)Nc1ccccc1OC | – | inconclusive [inhibitor, single point]
44 | CSc1nc2ccc(Cl)cc2[nH]1 | – | inconclusive [inhibitor, single point]
45 | Oc1ccc(C[C@H]2CN([C@@H](Cc3ccccc3)CN3CCC[C@@H]3CN3C(=S)NC[C@@H]3Cc3ccccc3)C(=S)N2CC2CCCCC2)cc1 | – | inconclusive [inhibitor, single point]
46 | Cn1c(=O)[nH]c(=O)c2[nH]c(N(Cc3ccccc3)Cc3ccccc3)nc21 | – | inconclusive [inhibitor, single point]
47 | Cc1cc(C(=O)CN2CCC(C)CC2)c(C)n1-c1ccc(F)cc1 | – | inconclusive [inhibitor, single point]
48 | Cc1cccc2nc(-c3ccccc3)nc(N3CCC(O)(c4ccc(Cl)cc4)CC3)c12 | – | inconclusive [inhibitor, single point]

Row | Compound | activity change, negative = growth inhibition | Potency
49 | Cc1ccc(S(=O)(=O)N2C[C@H]3N(C(=O)OC(C)C)N(C(=O)OC(C)C)C[C@H](OC(=O)Nc4c(C)noc4C)[C@@]3(O)C2)cc1 | – | inconclusive [inhibitor, single point]
50 | CCOC(=O)c1c(NC(=O)COc2ccccc2F)sc2c1CCCC2 | – | inconclusive [inhibitor, single point]
51 | Cc1cccc(CN2C(=O)c3ccccc3Sc3ccc(C(=O)N4CCCC4)cc32)c1 | – | inconclusive [inhibitor, partial curve, poor fit]
52 | O=C(Nc1cc(Cl)cc(Cl)c1)c1ccc(F)c(S(=O)(=O)NC2CCCC2)c1 | – | active: 16.4 µM
53 | CN(C)S(=O)(=O)c1cccc(NC(=S)NC(=O)C2CCCCC2)c1 | – | inconclusive [inhibitor, single point]
54 | CCc1ccc(N(CC)C(=O)c2ccc3c(=O)n4c(nc3c2)CCCCC4)cc1 | – | inconclusive [inhibitor, single point]
55 | Cc1oc2cc3oc(=O)c(CCC(=O)NCc4ccccn4)c(C)c3cc2c1C | – | inconclusive [inhibitor, single point]
56 | COC(=O)c1c(-c2cccs2)csc1NC(=O)c1ccc(Cl)cc1 | – | active: 16.4 µM
57 | COCCN1C(=O)c2[nH]nc(-c3ccccc3O)c2C1c1ccc(OCc2ccccc2)c(OC)c1 (stereo unspecified) | – | inconclusive [inhibitor, single point]
58 | Cc1ccc(CNC(=O)CSc2ccsc2[N+](=O)[O-])cc1 | – | inconclusive [inhibitor, partial curve]
59 | CCN(C(=O)Cn1c([N+](=O)[O-])cnc1C)c1ccccc1 | inactive: 1.9% | –
60 | CCCN(CC(=O)Nc1ccccc1OC)C(=O)c1ccc(S(=O)(=O)Nc2ccccc2)cc1 | – | inconclusive [inhibitor, single point]
61 | C=CCNC(=O)c1c(CSc2ccc(Cl)cc2)noc1C(=O)NCCC | inactive: -26% | –
62 | COc1ccc(S(=O)(=O)N(C)CC(=O)Nc2cccc(C(C)=O)c2)cc1 | – | inconclusive [inhibitor, single point]
63 | COc1ccc(/C(C)=N/NC2=NCCN2)cc1Cl | inactive: -11.6% | –
64 | c1cc2c3c(cccc3c1)NC1(CCC3(CC1)Nc1cccc4cccc(c14)N3)N2 | – | active: 9.2 µM
65 | COc1ccc(C(CCN2CCOCC2)c2c(O)cc(OC)cc2OC)cc1 (stereo unspecified) | – | inconclusive [inhibitor, single point]
66 | CCOC(=O)c1c(C)sc2c1N(C(=O)CCl)c1cc(Cl)ccc1S2 | – | active: 4.11 µM
67 | Cc1nc(-c2ccc(C(F)(F)F)cc2)sc1C(=O)NN | – | inconclusive [inhibitor, single point]
68 | COC(=O)Cc1ccc(NC(=S)N2CCCCC2C)cc1 (stereo unspecified) | inactive: 2.04% | –
69 | CC(=O)c1cccc(NC(=O)C(C)OC(=O)CCn2c(C)csc2=O)c1 (stereo unspecified) | inactive: 6.18% | –
70 | Cc1ccc(SCCN2CCC(NC(=O)OCc3ccccc3)CCC2=O)cc1 (stereo unspecified) | – | inconclusive [inhibitor, single point]
71 | COC(=O)c1cc(S(=O)(=O)NCC2CCN(Cc3cc(C)ccc3C)CC2)c[nH]1 | – | inconclusive [inhibitor, single point]
